# Assay results taken from PMC4336329 (PLoS ONE, 2015).
# Screen size: about 310,000 compounds; about 14,000 (4.5%) showed an effect of 50% or more. Effects have a minus sign here. The list shows a part of the results.
# Target: human ether-à-go-go-related gene (hERG) potassium channel (human, UniProt Q12809)
# Assay: primary screen, population patch clamp on CHO cells stably expressing hERG
# 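Further: peak tail current of the secondary pulse compared with the same well before compound.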
# Chain of human ether-à-go-go-related gene (hERG) potassium channel (Q12809 whole entry, looked up): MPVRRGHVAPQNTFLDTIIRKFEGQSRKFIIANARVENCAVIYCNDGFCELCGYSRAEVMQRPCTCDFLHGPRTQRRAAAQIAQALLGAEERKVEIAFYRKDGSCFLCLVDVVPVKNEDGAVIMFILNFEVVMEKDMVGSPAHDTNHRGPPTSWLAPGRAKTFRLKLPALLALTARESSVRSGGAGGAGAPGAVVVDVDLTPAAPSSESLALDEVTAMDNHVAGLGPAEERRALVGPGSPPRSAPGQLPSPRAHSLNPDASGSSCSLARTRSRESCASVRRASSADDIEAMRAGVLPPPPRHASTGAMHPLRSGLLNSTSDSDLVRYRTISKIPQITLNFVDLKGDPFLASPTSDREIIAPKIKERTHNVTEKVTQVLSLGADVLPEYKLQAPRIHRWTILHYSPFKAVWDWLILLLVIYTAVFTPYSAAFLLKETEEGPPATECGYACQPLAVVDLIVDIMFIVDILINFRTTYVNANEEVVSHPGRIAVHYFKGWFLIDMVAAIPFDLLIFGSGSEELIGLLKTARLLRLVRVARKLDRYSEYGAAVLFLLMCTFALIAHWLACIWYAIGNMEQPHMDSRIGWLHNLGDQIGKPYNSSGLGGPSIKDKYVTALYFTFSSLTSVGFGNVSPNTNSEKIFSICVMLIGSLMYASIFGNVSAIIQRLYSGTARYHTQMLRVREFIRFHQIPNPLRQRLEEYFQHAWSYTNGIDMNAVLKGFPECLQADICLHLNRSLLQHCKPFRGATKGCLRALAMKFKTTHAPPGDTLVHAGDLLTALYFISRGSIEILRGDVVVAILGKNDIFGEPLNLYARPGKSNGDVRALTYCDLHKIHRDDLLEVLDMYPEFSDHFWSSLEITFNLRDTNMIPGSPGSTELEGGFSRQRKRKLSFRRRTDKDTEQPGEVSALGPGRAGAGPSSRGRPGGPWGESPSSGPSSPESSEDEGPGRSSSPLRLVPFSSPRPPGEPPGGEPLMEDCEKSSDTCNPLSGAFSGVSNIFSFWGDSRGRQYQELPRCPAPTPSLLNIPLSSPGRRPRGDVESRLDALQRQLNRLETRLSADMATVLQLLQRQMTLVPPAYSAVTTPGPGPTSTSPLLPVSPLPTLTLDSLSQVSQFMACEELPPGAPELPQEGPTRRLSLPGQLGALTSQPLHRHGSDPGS
row,SMILES,"hERG current change (%, negative = inhibition) at 10uM [%]"
1,O=C(Cn1nnc(-c2ccc(CN3CCOCC3)cc2)n1)NC1CCCCC1,-12.4
2,CCCC(c1nnnn1C(C)(C)CC)N1CCN(C2CCCC2)CC1.Cl (stereo not shown),-35.3
3,c1ccc2nc3c(cc2c1)CCCCCC3,-11.8
4,CN1CCC/C1=C/C=C1\SC(=S)NC1=O,5.38
5,Cc1cccc(NC(=O)CSCC(=O)Nc2cccc3ncccc23)c1,3.27
6,CCc1ccc(NC(=O)CCS(=O)(=O)c2ccc(Br)cc2)cc1,24
7,O=C(NCCCN1CCOCC1)c1ccc2ccccc2c1,-2.68
8,COc1ccccc1NC(=O)C1=C(C)Nc2nnnn2C1c1ccccn1 (stereo not shown),14.2
9,COCCN(C(=O)c1ccc(C#N)cc1)c1c(N)n(Cc2ccccc2)c(=O)[nH]c1=O,23.4
10,CCOC(=O)Nc1ccc(=O)n(Cc2c(Cl)cccc2Cl)c1,-16.8
11,Cl.O=C(/C=C/c1cn(-c2ccccc2)nc1-c1cccnc1)NCCN1CCOCC1,-5.55
12,COc1ccc(NC(=O)CN2CCCCCC2)cc1OC,3.79
13,CCC1C/C(=C/c2ccco2)C(=O)/C(=C/c2ccco2)C1 (stereo not shown),4.01
14,Cc1cc(NS(=O)(=O)c2ccc(NC(=S)NC(=O)c3ccccc3)cc2)no1,-0.125
15,Cc1ccc(S(=O)(=O)N(CC(=O)NC2CCCC2)c2cccc(C)c2)cc1,-43.9
16,COc1ccc(-n2nnnc2SCC(=O)Nc2nnc(C)s2)cc1OC,-8.15
17,C=C(C)CCC(C)N1CCC(n2nccc2NC(=O)CCOc2ccccc2)CC1 (stereo not shown),-38.1
18,O=C(CN(Cc1ccco1)C(=O)c1cc(=O)[nH]c2ccccc12)Nc1ccccc1Br,-53.5
19,CCN(CC)c1ccc(NC(=O)c2ccccc2Br)cc1S(=O)(=O)Nc1ccccc1OC,0.614
20,CNCCCOc1ccc(C)cc1Br.O=C(O)C(=O)O,-10.9
21,O=c1ccc(Cl)cn1Cc1ccccc1F,5.34
22,CCOC(=O)C1(Cc2ccc(OC)cc2)CCN(C(=O)Cn2cnnn2)CC1,-4.37
23,COc1ccccc1-c1csc(-n2ncc(C#N)c2N)n1,46.6
24,O=C(/C=C/c1ccccc1Cl)N(Cc1ccccc1)C1CCS(=O)(=O)C1 (stereo not shown),-7.94
25,COc1ccc(C2(C)NC(=O)N(CC(=O)NC3CCCC3)C2=O)cc1OC (stereo not shown),23.7
